Screen size: about 390,000 compounds; about 4,700 (1.2%) were called active. Inconclusive means that the source gave no clear call. Such entries were picked first, then a sample of the others. Calls follow the shape of the dose curve; as a rule, active = well fitted inhibition curve with a large enough effect; inconclusive = small, poorly fitted or top-dose-only effect, or another doubt; inactive = no such curve, though single readings can be large or run the other way. Potencies beside an inconclusive call are fits to weak or partial responses and may not hold up.
Molecular target: DNA polymerase eta (Homo sapiens) (UniProt Q9Y253)
Sequence of UniProt Q9Y253 (Q9Y253 whole entry, looked up): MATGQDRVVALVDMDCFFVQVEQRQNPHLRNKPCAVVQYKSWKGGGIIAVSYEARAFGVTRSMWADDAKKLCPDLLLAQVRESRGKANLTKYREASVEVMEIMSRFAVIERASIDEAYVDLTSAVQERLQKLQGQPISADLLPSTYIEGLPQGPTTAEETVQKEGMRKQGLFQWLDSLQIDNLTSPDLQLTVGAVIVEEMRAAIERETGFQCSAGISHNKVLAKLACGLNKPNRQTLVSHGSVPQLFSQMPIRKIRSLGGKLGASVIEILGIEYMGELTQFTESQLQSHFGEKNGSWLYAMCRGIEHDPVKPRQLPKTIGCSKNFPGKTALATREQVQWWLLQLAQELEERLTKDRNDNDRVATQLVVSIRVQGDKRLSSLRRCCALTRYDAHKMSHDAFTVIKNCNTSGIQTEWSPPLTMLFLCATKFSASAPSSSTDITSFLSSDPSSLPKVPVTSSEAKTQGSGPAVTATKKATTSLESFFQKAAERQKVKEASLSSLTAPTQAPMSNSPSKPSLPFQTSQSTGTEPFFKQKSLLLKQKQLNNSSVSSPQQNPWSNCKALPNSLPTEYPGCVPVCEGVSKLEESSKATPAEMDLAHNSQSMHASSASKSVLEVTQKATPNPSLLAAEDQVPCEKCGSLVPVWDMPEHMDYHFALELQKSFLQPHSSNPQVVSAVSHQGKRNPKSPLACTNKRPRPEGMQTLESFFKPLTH
Experiment: qHTS for Inhibitors of Polymerase Eta
Settings: recombinant Pol eta, fluorescent DNA replication assay; series mostly up to 114 µM
How it was run: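 Pol eta (10 nM) was preincubated with compounds for 15 min at room temperature, after which fluorescent replication substrate (50 nM final) was added to start the reaction. Fluorescence was read kinetically at 0 and 10 min.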
Potency is read from the fitted curve at half-maximal effect; tags tell the direction and shape of the fitted curve.

Structure (SMILES)	Potency
COc1cc(=O)n2c(n1)SCCC2	inconclusive: 35.5 µM [inhibitor, single point]
O=[N+]([O-])c1ccc(Sc2ncccn2)c([N+](=O)[O-])c1	inconclusive: 56.2 µM [inhibitor, partial curve, poor fit]
CC(C)Cn1c(N)c(C(=O)CSc2nc3ncc(Cl)cc3[nH]2)c(=O)n(C)c1=O	inconclusive: 31.6 µM [inhibitor, single point]
CCCCn1c(=O)c2oc3ccccc3c2n(Cc2cccc(C)c2)c1=O	inactive
COc1cccc(CNC(=O)CCn2c(=O)c3cccn3c3cccnc32)c1OC	inactive
CCOc1ccc(-n2c(SCc3ccc([N+](=O)[O-])cc3)nnc2-c2ccccc2)cc1	inconclusive: 56.2 µM [inhibitor, partial curve, poor fit]
CCCCn1c(N)c(N(CC(C)C)C(=O)c2oc3ccc(OCC)cc3c2C)c(=O)[nH]c1=O	inconclusive: 22.4 µM [inhibitor, partial curve, poor fit]
COc1ccc(/C=N/NC(=O)c2cc3cc(OC)c(OC)cc3[nH]2)cc1	inconclusive: 15.8 µM [inhibitor, full curve]
O=C(CCCN1C(=O)/C(=C/c2ccco2)SC1=S)Nc1ccccc1	inconclusive: 39.8 µM [inhibitor, partial curve, poor fit]
CCOc1ccc(C(=O)Nc2ccc(NC(=O)c3ccco3)c(Cl)c2)cc1Cl	inconclusive: 15.8 µM [inhibitor, partial curve, poor fit]
COc1cc(/C=N/NC(=O)c2nnn(-c3nonc3N)c2C)ccc1OCc1ccc(Cl)cc1	inconclusive: 3.55 µM [inhibitor, full curve]
Cc1c(-c2cccc(NC(=O)Nc3ccccc3)c2)nc2ncccn12	inactive
N=C1/C(=C/c2ccc(Br)o2)C(=O)N=C2SC(CC(=O)N3CCCC3)=NN12	active: 8.91 µM
Cc1nc(NC(=O)/C=C/c2ccccc2)sc1C(=O)Nc1ccccc1Cl	inconclusive: 10 µM [inhibitor, partial curve]
CCCCCCn1cnc2c(c1=O)c1nc3ccccc3nc1n2/N=C/c1ccco1	inconclusive: 25.1 µM [inhibitor, partial curve, poor fit]
Cc1ccc(-c2nnc(-c3ccc(NC(=O)c4ccco4)cc3)o2)cc1	inconclusive: 14.1 µM [inhibitor, full curve]
Cc1nnsc1C(=O)NC1CCCCC1	inactive
O=C(O)c1ccc2c(c1)NC(=O)C(N1CCCC1)S2 (centres undefined)	inconclusive: 79.4 µM [inhibitor, single point]
S=C(NCc1ccc(Cl)cc1Cl)NC1CCCCC1	inconclusive: 39.8 µM [inhibitor, partial curve, poor fit]
O=c1oc(-c2ccccc2)nc2sc3c(c12)CCC3	inconclusive: 14.1 µM [inhibitor, full curve, poor fit]
COc1ccc2nc(N=NC3=C(O)CC(C)(C)CC3=O)sc2c1	inactive
O=c1[nH]c(Nc2ccccc2)cc2cc(Br)ccc12	active: 39.8 µM
O=C(Nc1nnc(S(=O)(=O)N2CCCCCC2)s1)c1cccc(Br)c1	inconclusive: 15.8 µM [inhibitor, partial curve, poor fit]

Structure (SMILES)	Potency
O=C(c1cc(Br)c(Br)s1)N1CCN(c2ccccn2)CC1	inconclusive: 79.4 µM [inhibitor, partial curve, poor fit]
O=C(CCl)NC(=O)NC12CC3CC(CC(C3)C1)C2	inconclusive: 17.8 µM [inhibitor, full curve, poor fit]
Clc1cccc(C2Nc3cccc4cccc(c34)N2)c1	inconclusive: 50.1 µM [inhibitor, partial curve]
Cc1ccc(CS(=O)(=O)CCC(=O)NCCN(C)Cc2ccccc2)cc1	inactive
COc1cc(/C=C/c2nc3ccccc3c(=O)[nH]2)cc(Cl)c1O	inconclusive: 44.7 µM [inhibitor, partial curve]
COc1ccc(/C=N/n2cnc3scc(-c4cccs4)c3c2=O)cc1OC	inconclusive: 25.1 µM [inhibitor, partial curve]
CCC(Cn1nnc2ccccc2c1=O)NC(=O)Nc1ccc(C)cc1C (centres undefined)	inactive
CSc1nc(N)c(C(=O)N(c2ccccc2)c2ccccc2)s1	inconclusive: 79.4 µM [inhibitor, partial curve, poor fit]
COc1cccc(OC)c1C(=O)Nc1ccccc1C(=O)N1CCCCCC1	inactive
COC(=O)c1cc(S(=O)(=O)N2CCOCC2)c(Cl)cc1N1CCOCC1	inactive
O=C1NC(=S)S/C1=C\c1cc(Cl)ccc1Cl	active: 39.8 µM
O=C(C1CCN(Cc2ccc(F)cc2)CC1)N(CCc1ccccc1)Cc1ccccc1	inconclusive: 70.8 µM [inhibitor, partial curve, poor fit]
CSc1ccc(CN(C)CC(=O)Nc2ccc(C)cc2Br)cc1	inconclusive: 89.1 µM [inhibitor, partial curve, poor fit]
Nc1ccc(N2CCCCC2)c(S(=O)(=O)Nc2ccccc2Cl)c1	inconclusive: 20 µM [inhibitor, full curve]
CCOc1ccc(NC(=O)NCCCn2c(C)nc3cc(C)c(C)cc32)cc1	inactive
C/C(=N\NC(=O)c1nnn(-c2nonc2N)c1-c1ccccc1)c1ccco1	inactive
Cc1cc(C)nc(NS(=O)(=O)c2ccc(N=Cc3c(C)[nH]n(-c4ccccc4)c3=O)cc2)n1	inactive
COc1ccc(/C=C2\CC/C(=C\c3ccc(OC)c(OC)c3)C2=O)cc1OC	inactive
CSc1sccc1/C=C(/C#N)C(=O)c1ccco1	inconclusive: 79.4 µM [inhibitor, partial curve]
Nc1nc(-c2ccc(-n3nncc3-c3ccco3)cc2)cs1	inconclusive: 79.4 µM [inhibitor, partial curve, poor fit]
CCC(=O)N1CCc2cc(S(=O)(=O)NC(CC(C)C)C(=O)Nc3cc(C)ccc3OC)ccc21 (centres undefined)	inactive
c1ccc(-c2nccc(-c3ccc(-n4cnc5ccccc54)cc3)n2)cc1	inconclusive: 3.16 µM [inhibitor, full curve, poor fit]
O=C(c1ccco1)N1CCN(c2ncnc3c2[nH]c2ccc(Br)cc23)CC1	inconclusive: 17.8 µM [inhibitor, partial curve, poor fit]

Structure (SMILES)	Potency
Cc1c(C(N)=O)nnn1-c1ccc(Br)cc1	inactive
Cc1ccc(/C=C2/C(=N)N3N=C(CC(=O)N4CCCC4)SC3=NC2=O)cc1	inactive
O=C(NC(=S)N1CCN(c2nc(-c3ccccc3)cs2)CC1)c1cncc(Br)c1	inactive
CC(=O)N(/N=C1\Sc2ccccc2C1=O)c1ccccc1C	active: 20 µM
CCSc1nc2n(n1)C(c1ccc(CC)cc1)C(C(=O)Nc1ccccc1OC)=C(C)N2 (centres undefined)	inactive
C[C@@H](CSc1ccc(Br)cc1)CN1CC[C@H](NC(=O)OCc2ccccc2)CCC1=O	inconclusive: 89.1 µM [inhibitor, partial curve, poor fit]
CN(C)CCN1C(=O)C(O)=C(C(=O)c2cc3ccccc3o2)C1c1cccc(Br)c1 (centres undefined)	inconclusive: 20 µM [inhibitor, single point]
CC(C)N1CCN(Cc2cccn2-c2nccs2)CC1CCO (centres undefined)	inconclusive: 100 µM [inhibitor, partial curve, poor fit]
CCc1nnc(NS(=O)(=O)c2ccc(N3C(=O)C4CC=C(Cl)CC4C3=O)cc2)s1 (centres undefined)	active: 44.7 µM
CC1CCN(CCCNC(=O)c2cc3c(s2)-c2ccccc2OC3)CC1	inactive
Cc1cc2c(SCC(=O)Nc3cccc(O)c3)ncnc2s1	active: 22.4 µM
Cc1ccccc1OCCCCn1cnc2ccccc21	inconclusive: 50.1 µM [inhibitor, partial curve, poor fit]
CC(C)N1C(=O)S/C(=C/c2ccc3c(c2)n(C)c(=O)n3C)C1=O	inconclusive: 100 µM [inhibitor, single point]
Cc1ccc2cc3cc(C(=O)NCCCN4CCCCCC4)oc3nc2c1	inconclusive: 14.1 µM [inhibitor, partial curve, poor fit]
COc1ccc(N2CCN(C(CNC(=O)C(C)(C)C)c3ccco3)CC2)cc1 (centres undefined)	inconclusive: 89.1 µM [inhibitor, partial curve, poor fit]
N#Cc1cc2ccccc2nc1SCC(=O)Nc1ccccc1N1CCOCC1	inconclusive: 28.2 µM [inhibitor, single point]
C(=C\c1ccccc1)/CSc1nnc(-c2cccnc2)n1Cc1ccco1	inconclusive: 28.2 µM [inhibitor, partial curve, poor fit]
Cc1ccc2c(C)c(C)c(=O)n(C)c2c1	inactive
CCOc1ccc(C(CC(=O)O)NC(=O)COc2ccccc2)cc1 (centres undefined)	inconclusive: 0.631 µM [inhibitor, full curve, poor fit]
CC(C)(C)c1csc(NC(=O)c2ccncc2)n1	inconclusive: 89.1 µM [inhibitor, partial curve, poor fit]
Cc1ccc(-n2nc3cc(C)c(NC(=S)NC(=O)/C=C/c4ccco4)cc3n2)cc1	inconclusive: 31.6 µM [inhibitor, single point]
CC(C)N1C(=S)N(Cc2ccco2)C(=O)C1CC(=O)Nc1ccccc1 (centres undefined)	inconclusive: 89.1 µM [inhibitor, partial curve, poor fit]
COc1cccc(N2CC(C(=O)Nc3nnc(SCC(=O)N4CCCC4)s3)CC2=O)c1 (centres undefined)	inconclusive: 39.8 µM [inhibitor, single point]
